Assay [1] has as its system K. pneumoniae UNT023-1 (KPC producing strain). Kind of assay: MIC of the test articles of the mouse pneumonia study (Table 9). The format is cell-based. The conditions noted are these: Klebsiella pneumoniae.
The test system is the same in assay [2]. In words: Mouse pneumonia study, 24 hour lung CFU counts. The format is in vivo, Female CD-1 mice. The conditions noted are these: N. BO @ 2 and 12 hrs. post-infection; for Mean log10 CPU/pair Lung: 24 hour lung counts, neutropenic CD-1 mice.

A word on the MIC: it is the lowest concentration found to suppress growth. Turning to `CCN(C)[C@@H]1C(O)=C(C(N)=O)C(=O)[C@@]2(O)C(O)=C3C(=O)c4c(O)cc5c(c4C[C@H]3C[C@@H]12)N(C)CC1CCN(C)C51` (single isomer, unassigned) [Compound S5-10-3-B], the MIC in assay [1] is 0.125 µg/mL.

Take `CCN(C)[C@@H]1C(O)=C(C(N)=O)C(=O)[C@@]2(O)C(O)=C3C(=O)c4c(O)cc(C5CCCN5)c(C(F)(F)F)c4C[C@H]3C[C@@H]12` (single isomer, unassigned) [Compound S4-14-5-A]: in assay [2] (15 mg/kg/dose), the “Log10 change from 2 hr. Control” value is listed as −0.83 Log10. In addition, in assay [2] (40 mg/kg/dose), the “Log10 change from 24 hr. Control” value was −2.51 Log10 and the “Mean log10 CPU/pair Lung” value is on record as 6.89 log10 CPU/pair Lung.

`CN(C)c1cc(NC(=O)CNC(C)(C)C)c(O)c2c1C[C@H]1C[C@H]3[C@H](N(C)C)C(O)=C(C(N)=O)C(=O)[C@@]3(O)C(O)=C1C2=O` [Tigecycline, tigecycline]: the “Mean log10 CPU/pair Lung” value in assay [2] (80 mg/kg/dose) is 5.27 log10 CPU/pair Lung.

As to `CCN(CC)[C@@H]1C(O)=C(C(N)=O)C(=O)[C@@]2(O)C(O)=C3C(=O)c4c(O)cc(C5CCCN5)c(C(F)(F)F)c4C[C@H]3C[C@@H]12` (single isomer, unassigned) [Compound S4-14-14-A], the “Log10 change from 2 hr. Control” value in assay [2] (5 mg/kg/dose) amounted to 1.83 Log10. The “Mean log10 CPU/pair Lung” value in assay [2] (5 mg/kg/dose) stood at 8.18 log10 CPU/pair Lung; in assay [2] (15 mg/kg/dose) it was 8.71 log10 CPU/pair Lung; in assay [2] (40 mg/kg/dose), 8.32 log10 CPU/pair Lung.

Values taken from US10913712B2, “Tetracycline compounds” (Tetraphase Pharmaceuticals, Inc., priority 2012, dated 2021).
